To fix the notation:
T1: RBFOX1 RRM (Homo sapiens, UniProt Q9NWB1 109-208)
T1 sequence: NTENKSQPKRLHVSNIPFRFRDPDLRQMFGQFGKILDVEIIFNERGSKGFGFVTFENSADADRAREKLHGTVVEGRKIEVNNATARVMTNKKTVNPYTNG

B1: AAUAUUC (DNA:RNA)
RNA: GGGAGACCGGAAUUCAGAUUGUCCAAUAUUCUUAAAUCCCGUCGUAGCCACCA
DNA 1: CAATCTGAATTCCGGTCTCCC
DNA 2: TGGTGGCTACGACGGGATT
B2: UGAUCUA (DNA:RNA)
RNA: B1 RNA with A25U, A26G, U27A, A28U, U29C, C31A
DNA 1: CAATCTGAATTCCGGTCTCCC
DNA 2: TGGTGGCTACGACGGGATT
B3: CAACUGG (DNA:RNA)
RNA: B1 RNA with A25C, U27A, A28C, U30G, C31G
DNA 1: CAATCTGAATTCCGGTCTCCC
DNA 2: TGGTGGCTACGACGGGATT
B4: UCGGGUG (DNA:RNA)
RNA: B1 RNA with A25U, A26C, U27G, A28G, U29G, C31G
DNA 1: CAATCTGAATTCCGGTCTCCC
DNA 2: TGGTGGCTACGACGGGATT
B5: UGGCACA (DNA:RNA)
RNA: GGGAGACCGGAAUUCAGAUUGUCCUGGCACAUUAAAUCCCGUCGUAGCCACCA
DNA 1: CAATCTGAATTCCGGTCTCCC
DNA 2: TGGTGGCTACGACGGGATT
B6: CUUUCCG (DNA:RNA)
RNA: B1 RNA with A25C, A26U, A28U, U29C, U30C, C31G
DNA 1: CAATCTGAATTCCGGTCTCCC
DNA 2: TGGTGGCTACGACGGGATT
B7: AUCUCCG (DNA:RNA)
RNA: B1 RNA with A26U, U27C, A28U, U29C, U30C, C31G
DNA 1: CAATCTGAATTCCGGTCTCCC
DNA 2: TGGTGGCTACGACGGGATT
B8: UGUGCUA (DNA:RNA)
RNA: B5 RNA with G27U, C28G, A29C, C30U
DNA 1: CAATCTGAATTCCGGTCTCCC
DNA 2: TGGTGGCTACGACGGGATT
B9: GACUCCG (DNA:RNA)
RNA: B1 RNA with A25G, U27C, A28U, U29C, U30C, C31G
DNA 1: CAATCTGAATTCCGGTCTCCC
DNA 2: TGGTGGCTACGACGGGATT
B10: GCUUUCA (DNA:RNA)
RNA: B1 RNA with A25G, A26C, A28U, U30C, C31A
DNA 1: CAATCTGAATTCCGGTCTCCC
DNA 2: TGGTGGCTACGACGGGATT
B11: GCAGCGG (DNA:RNA)
RNA: GGGAGACCGGAAUUCAGAUUGUCCGCAGCGGUUAAAUCCCGUCGUAGCCACCA
DNA 1: CAATCTGAATTCCGGTCTCCC
DNA 2: TGGTGGCTACGACGGGATT
B12: GCUACUU (DNA:RNA)
RNA: B1 RNA with A25G, A26C, U29C, C31U
DNA 1: CAATCTGAATTCCGGTCTCCC
DNA 2: TGGTGGCTACGACGGGATT
B13: GCUCACG (DNA:RNA)
RNA: B11 RNA with A27U, G28C, C29A, G30C
DNA 1: CAATCTGAATTCCGGTCTCCC
DNA 2: TGGTGGCTACGACGGGATT
B14: AGAUAAC (DNA:RNA)
RNA: B1 RNA with A26G, U27A, A28U, U29A, U30A
DNA 1: CAATCTGAATTCCGGTCTCCC
DNA 2: TGGTGGCTACGACGGGATT
B15: GCUUACA (DNA:RNA)
RNA: B5 RNA with U25G, G26C, G27U, C28U
DNA 1: CAATCTGAATTCCGGTCTCCC
DNA 2: TGGTGGCTACGACGGGATT
B16: GCUACCG (DNA:RNA)
RNA: B11 RNA with A27U, G28A, G30C
DNA 1: CAATCTGAATTCCGGTCTCCC
DNA 2: TGGTGGCTACGACGGGATT
B17: CACAGAG (DNA:RNA)
RNA: B1 RNA with A25C, U27C, U29G, U30A, C31G
DNA 1: CAATCTGAATTCCGGTCTCCC
DNA 2: TGGTGGCTACGACGGGATT
B18: CAUGUAU (DNA:RNA)
RNA: B1 RNA with A25C, A28G, U30A, C31U
DNA 1: CAATCTGAATTCCGGTCTCCC
DNA 2: TGGTGGCTACGACGGGATT
B19: CAUGGGA (DNA:RNA)
RNA: B1 RNA with A25C, A28G, U29G, U30G, C31A
DNA 1: CAATCTGAATTCCGGTCTCCC
DNA 2: TGGTGGCTACGACGGGATT
B20: UAGAUCC (DNA:RNA)
RNA: B1 RNA with A25U, U27G, U30C
DNA 1: CAATCTGAATTCCGGTCTCCC
DNA 2: TGGTGGCTACGACGGGATT
B21: CGUCCGC (DNA:RNA)
RNA: B1 RNA with A25C, A26G, A28C, U29C, U30G
DNA 1: CAATCTGAATTCCGGTCTCCC
DNA 2: TGGTGGCTACGACGGGATT
B22: AGGGAAC (DNA:RNA)
RNA: B5 RNA with U25A, C28G, C30A, A31C
DNA 1: CAATCTGAATTCCGGTCTCCC
DNA 2: TGGTGGCTACGACGGGATT
B23: GUCGUUA (DNA:RNA)
RNA: B1 RNA with A25G, A26U, U27C, A28G, C31A
DNA 1: CAATCTGAATTCCGGTCTCCC
DNA 2: TGGTGGCTACGACGGGATT
B24: CGUGAUG (DNA:RNA)
RNA: B1 RNA with A25C, A26G, A28G, U29A, C31G
DNA 1: CAATCTGAATTCCGGTCTCCC
DNA 2: TGGTGGCTACGACGGGATT
B25: CAAGAGG (DNA:RNA)
RNA: B11 RNA with G25C, C26A, C29A
DNA 1: CAATCTGAATTCCGGTCTCCC
DNA 2: TGGTGGCTACGACGGGATT
B26: UCCAUCC (DNA:RNA)
RNA: B1 RNA with A25U, A26C, U27C, U30C
DNA 1: CAATCTGAATTCCGGTCTCCC
DNA 2: TGGTGGCTACGACGGGATT
B27: CGGUCAU (DNA:RNA)
RNA: B5 RNA with U25C, C28U, A29C, C30A, A31U
DNA 1: CAATCTGAATTCCGGTCTCCC
DNA 2: TGGTGGCTACGACGGGATT
B28: UACGUAA (DNA:RNA)
RNA: B1 RNA with A25U, U27C, A28G, U30A, C31A
DNA 1: CAATCTGAATTCCGGTCTCCC
DNA 2: TGGTGGCTACGACGGGATT
B29: CGUAUGA (DNA:RNA)
RNA: B1 RNA with A25C, A26G, U30G, C31A
DNA 1: CAATCTGAATTCCGGTCTCCC
DNA 2: TGGTGGCTACGACGGGATT
B30: CUCUUUC (DNA:RNA)
RNA: B1 RNA with A25C, A26U, U27C, A28U
DNA 1: CAATCTGAATTCCGGTCTCCC
DNA 2: TGGTGGCTACGACGGGATT
B31: AAGUCGG (DNA:RNA)
RNA: B11 RNA with G25A, C26A, A27G, G28U
DNA 1: CAATCTGAATTCCGGTCTCCC
DNA 2: TGGTGGCTACGACGGGATT

Numbering of substitutions follows the chain as printed; changes in the protein carry UniProt numbers. This is one part of the list.

The target of the assay is T1, RBFOX1 RRM. Put plainly: EMSA; HiTS-Eq, 1 nM pool, 10 min; buffer printed only for the single-RNA assays: 10 mM Tris pH 7.5, 150 mM NaCl, 3.4 mM EDTA, 0.001% NP-40, 30 C. Particulars: tags: His6 N-terminal (pET28a); label: 5' 32P. A digest of the protocol:
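Purified RbFox RRM (wild type or mutant) was equilibrated for 10 min in 50 µL with 1 nM of a 5′-radiolabelled pool of RNA with 7 randomized nucleotides, its flanks annealed to DNA oligonucleotides, across increasing protein concentrations. Free RNA was separated by 8% native PAGE, excised, reverse-transcribed, PCR-barcoded and sequenced on an Illumina HiSeq 2500. Relative association constants came from read-count changes of each variant against the control reaction, normalised to the cognate motif.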
(In general: Mobility shift assays separate free from complexed probe on a gel.)
Turning to B1, the binding signal was 0.00124 KA relative to UGCAUGU.

In the case of B2, the binding signal was 0.0112 KA relative to UGCAUGU.

For B3, the binding signal is 0.00817 KA relative to UGCAUGU.

On to B4, for which the binding signal was 0.0226 KA relative to UGCAUGU.

Turning to B5, the binding signal is 0.0101 KA relative to UGCAUGU.

As to B6, the binding signal was 0.00704 KA relative to UGCAUGU.

On to B7, for which the binding signal is 0.0015 KA relative to UGCAUGU.

On to B8, for which the binding signal was 0.0149 KA relative to UGCAUGU.

As for B9, the binding signal was 0.00654 KA relative to UGCAUGU.

As to B10, the binding signal was 0.013 KA relative to UGCAUGU.

Regarding B11, the binding signal is 0.0215 KA relative to UGCAUGU.

For B12, the binding signal is 0.0127 KA relative to UGCAUGU.

For B13, the binding signal is 0.00666 KA relative to UGCAUGU.

On to B14, for which the binding signal was 0.00125 KA relative to UGCAUGU.

With B15, the binding signal is 0.00617 KA relative to UGCAUGU.

In the case of B16, the binding signal was 0.0127 KA relative to UGCAUGU.

With B17, the binding signal was 0.0031 KA relative to UGCAUGU.

Regarding B18, the binding signal is 0.00422 KA relative to UGCAUGU.

As to B19, the binding signal is 0.00261 KA relative to UGCAUGU.

For B20, the binding signal is 0.00654 KA relative to UGCAUGU.

Regarding B21, the binding signal was 0.00928 KA relative to UGCAUGU.

As for B22, the binding signal was 0.021 KA relative to UGCAUGU.

With B23, the binding signal is 0.00816 KA relative to UGCAUGU.

As to B24, the binding signal is 0.0112 KA relative to UGCAUGU.

B25: the binding signal was 0.00441 KA relative to UGCAUGU.

With B26, the binding signal is 0.00253 KA relative to UGCAUGU.

B27: the binding signal is 0.00557 KA relative to UGCAUGU.

Regarding B28, the binding signal is 0.00661 KA relative to UGCAUGU.

With B29, the binding signal was 0.0123 KA relative to UGCAUGU.

Consider B30, for which the binding signal is 0.0103 KA relative to UGCAUGU.

For B31, the binding signal is 0.00936 KA relative to UGCAUGU.

(Values after paper PMC9911399, “Two distinct binding modes provide the RNA-binding protein RbFox with extraordinary sequence specificity”.)
